# According to PubChem BioAssay AID2675 (National Center for Advancing Translational Sciences (NCATS), 2010):
# Among all 280,000 compounds or so, about 100 (0.036%) were called active. Inconclusive means that the source gave no clear call. Such entries were picked first, then a sample of the others. The call rests on the fitted dose curve; in most records, active means well fitted inhibition curve with a large enough effect in the signal ratio, with a control signal flat (not every such curve was filed as active); inconclusive means small, poorly fitted or top-dose-only effect, or effect the other way, or a change in a side signal; inactive means no such curve, though single readings can be large or run the other way; the % refers to the signal ratio. A potency beside an inconclusive call is a rough fit, not a confirmed value. “Side channel” marks fits to a control or component signal instead of the main read-out.
# Molecular target: Muscleblind-like protein 1 (Homo sapiens) (UniProt Q9NR56)
# Assay: qHTS Assay for Inhibitors of MBNL1-poly(CUG) RNA binding
# Settings: TR-FRET MBNL1-His/biotin-(CUG)12 binding, 665/545 ratio; activity change, negative = inhibition: at 57.5 µM (top of the series)
# In short: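 His-tagged MBNL1 binding to biotinylated (CUG)12 RNA was measured by TR-FRET using terbium anti-His antibody (0.055 ng/ul final) and streptavidin-XL665 (5 nM final). Compounds were titrated 92 nM to 58 uM; 60 min at room temperature.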
# On the % scale 0 is the no-effect control and ±100 the full control effect; potency means the concentration at half of the fitted maximal effect; tags describe the fitted curve by direction and shape or compound fluorescence and quenching.
# UniProt Q9NR56, sequence (Q9NR56 whole entry, looked up): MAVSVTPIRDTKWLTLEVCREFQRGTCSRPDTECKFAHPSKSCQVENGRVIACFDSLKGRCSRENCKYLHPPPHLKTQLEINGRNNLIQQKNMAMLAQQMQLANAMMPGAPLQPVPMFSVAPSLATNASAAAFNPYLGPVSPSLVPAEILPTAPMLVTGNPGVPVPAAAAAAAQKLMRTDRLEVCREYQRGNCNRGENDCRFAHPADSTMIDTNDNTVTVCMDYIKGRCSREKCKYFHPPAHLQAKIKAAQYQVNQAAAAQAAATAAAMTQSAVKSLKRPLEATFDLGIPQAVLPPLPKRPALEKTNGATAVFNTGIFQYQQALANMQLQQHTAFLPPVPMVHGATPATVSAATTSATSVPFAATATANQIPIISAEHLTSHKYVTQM
SMILES,Potency,"activity change, negative = inhibition"
O=[N+]([O-])c1ccc(O)c(/C=N/n2c(CO)nc3ccccc32)c1,"inconclusive: 28.2 µM [quencher, side channel, single point]",–
CCCn1c(=N)c(S(=O)(=O)c2ccc(F)cc2)cc2c(=O)n3ccccc3nc21,"inconclusive: 2.82 µM [quencher, full curve]",–
Cc1nnc(C)n1/N=C/c1cc2ccccc2nc1Cl,"inconclusive: 31.6 µM [quencher, side channel, single point]",–
Cc1ccc(-n2c(=S)[nH]c3nc4c(cc3c2=O)COC(C)(C)C4)cc1,–,inactive: -1.43%
Cc1onc(-c2ccccc2Cl)c1C(=O)N1CCN(c2ccccc2)CC1,–,inactive: -3.43%
CCCN1C(=O)c2ccccc2NC1c1ccc(Cl)c(Cl)c1 (centres undefined),–,inactive: -1.43%
COC(=O)CCCC1=CC2=C(c3ccccc3)C(=O)C(C)(OC(=O)C3CCCC3)C(=O)C2=CN1C1CCCCC1 (centres undefined),"inconclusive: 31.6 µM [quencher, side channel, single point]",–
COCC(C)NCc1cccc([N+](=O)[O-])c1 (centres undefined),"inconclusive: 25.1 µM [quencher, side channel, single point]",–
CCOC(=O)c1nn(-c2ccc(Br)cc2)cc1C(=O)c1cccc2ccccc12,–,inactive: -4.88%
CCOc1ccc(S(=O)(=O)N(C)c2ccc(OCC(=O)Nc3nccs3)cc2)cc1,–,inactive: -5.48%
O=c1c2ccccc2nc(/C=C/c2ccc3c(c2)OCO3)n1CCCO,"inconclusive: 35.5 µM [quencher, side channel, single point]",–
COc1ccccc1N1CCN(/N=C\c2ccc(C)o2)CC1,"inconclusive: 28.2 µM [quencher, side channel, partial curve]",–
N#CC(C#N)=C1c2cc(S(N)(=O)=O)ccc2-c2ccc(S(N)(=O)=O)cc21,"inconclusive: 7.94 µM [quencher, side channel, partial curve]",–
CCOC(=O)c1c(NC(=S)Nc2ccccc2)sc2c1CCN(C)C2,"inconclusive: 15.8 µM [quencher, partial curve]",–
COc1ccc(C)cc1NC(=O)c1ccc([N+](=O)[O-])cc1[N+](=O)[O-],"inconclusive: 3.16 µM [quencher, side channel, full curve]",–
Cc1nc(N2CCCCC2)sc1C(=O)c1cccc([N+](=O)[O-])c1,"inconclusive: 12.6 µM [quencher, side channel, partial curve]",–
CC(C)(C)[C@H]1C=C(C(=O)NCc2nc3ccccc3[nH]2)O[C@@H](OCCCCO)C1,–,inactive: 2.78%
Cc1ccc2c(c1)COc1c3ccc(C(=O)NC(C)C)cc3nn1-2,"inconclusive: 15.8 µM [quencher, side channel, partial curve]",–
CC(C)c1onc(C(=O)Nc2sc3c(c2C#N)CCC3)c1[N+](=O)[O-],"inconclusive: 28.2 µM [quencher, side channel, single point]",–
O=C1NC(=O)/C(=C\c2ccccc2OCc2ccc([N+](=O)[O-])cc2)N1,"inconclusive: 3.16 µM [quencher, side channel, full curve]",–

SMILES,Potency,"activity change, negative = inhibition"
COC(=O)c1cc(=O)nc2sc(-c3ccc(F)cc3)nn12,"inconclusive: 15.8 µM [quencher, side channel, partial curve]",–
CC[n+]1cc(C)ccc1/C=C/c1ccc(N(C)C)cc1,"inconclusive: 11.2 µM [quencher, side channel, partial curve]",–
COc1ccc(NC2c3ccccc3C(=O)N2Cc2ccco2)cc1OC (centres undefined),"inconclusive: 0.282 µM [quencher, side channel, full curve]",–
CC1(C)CC(=O)C(C(C2=C(O)CC(C)(C)CC2=O)c2cccnc2)C(=O)C1 (centres undefined),–,inactive: -6.76%
COc1cccc(NC(=O)CSc2nnc(-c3ccco3)c(-c3ccco3)n2)c1,"inconclusive: 17.8 µM [quencher, side channel, partial curve]",–
OCC1(CCCc2ccccc2)CCN(C2CCSCC2)CC1,–,inactive: 13.5%
Cc1ncc(CO)c(/C=N/N=C/c2ccccc2O)c1O,"inconclusive: 14.1 µM [quencher, side channel, partial curve]",–
CN(C)C1(CN=Cc2cc(Cl)cc([N+](=O)[O-])c2O)CCCCC1,"inconclusive: 25.1 µM [quencher, single point]",–
Cc1cccc(NC(=O)CSc2nnc(-c3ccco3)c(-c3ccco3)n2)c1C,"inconclusive: 15.8 µM [quencher, side channel, partial curve]",–
COc1ccc(OCC(=O)N2CCN(C(=O)Cc3ccccc3)CC2)cc1,"inconclusive: 39.8 µM [quencher, side channel, single point]",–
COc1ccc(C2=NS(=O)(=O)N(C)C(C(=O)Nc3ccc(C)cc3)=C2)cc1,"inconclusive: 35.5 µM [quencher, side channel, single point]",–
O=C(Nc1cc(Sc2ccccn2)cc([N+](=O)[O-])c1)c1ccc(Cl)cc1,"inconclusive: 31.6 µM [quencher, side channel, single point]",–
O=C(Nc1ccccc1[N+](=O)[O-])c1cc(S(=O)(=O)N2CCOCC2)cs1,"inconclusive: 12.6 µM [quencher, side channel, partial curve]",–
Cc1cccc(-n2ncc(Cl)c(Cl)c2=O)c1,"inconclusive: 28.2 µM [quencher, partial curve]",–
NS(=O)(=O)c1ccc(-c2ccc(/C=C3\NC(=S)NC3=O)o2)cc1,"inconclusive: 10 µM [quencher, side channel, single point]",–
CCN(CC)C(=O)CSc1nc2c(sc(=S)n2-c2ccccc2)c(=O)n1-c1ccc(OC)c(OC)c1,"inconclusive: 20 µM [quencher, side channel, partial curve]",–
O=C(CCN1C(=O)/C(=C\c2cccs2)SC1=S)NC1=NCCS1,"inconclusive: 5.01 µM [quencher, side channel, full curve, poor fit]",–
O=C(/C=C/c1cccnc1)c1ccc(F)c(F)c1,–,inactive: 3.26%
COc1ccc(N2C(=O)CC(Nc3ccc(N4CCOCC4)cc3)C2=O)c(OC)c1 (centres undefined),"inconclusive: 28.2 µM [quencher, side channel, partial curve]",–
CCCC(=O)NC1=C(C#N)C2(CCCC2)Cc2ccccc21,"inconclusive: 15.8 µM [quencher, side channel, partial curve]",–

SMILES,Potency,"activity change, negative = inhibition"
O=[N+]([O-])c1ccc2nc(CCCO)[nH]c2c1,"inconclusive: 14.1 µM [quencher, side channel, partial curve]",–
CC1=C(C(=O)NCc2ccccc2)C(c2cc(Br)cc(Br)c2OC(C)C)NC(=O)N1 (centres undefined),"inconclusive: 28.2 µM [quencher, side channel, single point]",–
CC(=O)NCCNC(=O)c1ccc(Sc2ccccc2)c([N+](=O)[O-])c1,"inconclusive: 14.1 µM [quencher, partial curve]",–
COc1ccc(NC(=O)COC(=O)c2ccc(O)cc2)c([N+](=O)[O-])c1,"inconclusive: 11.2 µM [quencher, partial curve]",–
N#Cc1c(N)n(CCOC(=O)c2cccc([N+](=O)[O-])c2)c2nc3ccccc3nc12,"inconclusive: 17.8 µM [quencher, partial curve]",–
CC1CCN(C(=O)c2ccc3c(c2)NC(=O)CN3)CC1,"inconclusive: 31.6 µM [quencher, side channel, single point]",–
O=[N+]([O-])c1cc([N+](=O)[O-])c2c(=Nc3ccccc3)n(-c3ccccc3)n(O)c2c1,"inconclusive: 14.1 µM [quencher, side channel, partial curve]",–
COc1ccc(OC)c(-c2csc(NC(=O)CSc3ccc([N+](=O)[O-])cc3)n2)c1,"inconclusive: 0.224 µM [quencher, side channel, full curve]",–
O=C(NCc1ccco1)c1ccc2ccccc2c1,"inconclusive: 39.8 µM [quencher, side channel, single point]",–
COc1ccc(S(=O)(=O)Cc2ccc(C(=O)N3CCN(c4cccc(C)c4C)CC3)o2)cc1,"inconclusive: 3.55 µM [quencher, side channel, single point]",–
CC(/C=C/c1ccccc1)=N\NC(=O)c1cc(C)[nH]n1,"inconclusive: 25.1 µM [quencher, side channel, partial curve]",–
C=CCc1cccc2cc(C(=O)Nc3ccccc3C(=O)O)c(=O)oc12,–,inactive: 16.2%
CCC(C#CCN1CCCCC1)(CC)OCCC#N,–,inactive: -1.88%
Cc1[nH]c2ccccc2c1/C=C(\C#N)C(=O)NC1CC1,"inconclusive: 28.2 µM [quencher, side channel, partial curve]",–
COc1ccc(C2C=C(c3ccc(F)cc3)NC(=S)N2)cc1OC (centres undefined),–,inactive: 1.26%
COCCNC(=O)Nc1ccc2nc(-c3cccs3)c(-c3cccs3)nc2c1,"inconclusive: 20 µM [quencher, side channel, partial curve]",–
O=C(N/N=C/c1cccnc1)c1ccc(Cn2cc([N+](=O)[O-])cn2)o1,"inconclusive: 28.2 µM [quencher, side channel, single point]",–
N#C/C(=C\c1c(N2CCCCCC2)nc2ccccn2c1=O)C(=O)NC1CCS(=O)(=O)C1 (centres undefined),"inconclusive: 35.5 µM [quencher, single point]",–
Cc1ccc(NC(=O)CN(C)CCOc2ccccc2)c([N+](=O)[O-])c1,"inconclusive: 28.2 µM [quencher, side channel, partial curve]",–
